# Laboratory results taken from PubChem BioAssay AID1030 (National Center for Advancing Translational Sciences (NCATS), 2008).
# The whole screen tested about 220,000 compounds, of which about 16,000 (7.3%) were called active. Inconclusive results, whose numbers are uncertain, are shown with a selection of clear calls. The call rests on the fitted dose curve; in most records, active means well fitted inhibition curve with a large enough effect (not every such curve was filed as active); inconclusive means small, poorly fitted or top-dose-only effect, or another doubt; inactive means no such curve, though single readings can be large or run the other way. Potencies of inconclusive entries are left out as doubtful fits.
# Target: Aldehyde dehydrogenase 1A1 (Homo sapiens) (UniProt P00352)
# Experiment: qHTS Assay for Inhibitors of Aldehyde Dehydrogenase 1 (ALDH1A1);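 on activity, negative = inhibition: plate controls were no enzyme wells and a reference inhibitor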
# Settings: Purified ALDH1A1, NADH fluorescence, propionaldehyde substrate; series mostly up to 75.3 µM
# Potency means the concentration at half of the fitted maximal effect; tags describe the fitted curve by direction and shape.
# UniProt P00352, sequence (P00352 whole entry, looked up): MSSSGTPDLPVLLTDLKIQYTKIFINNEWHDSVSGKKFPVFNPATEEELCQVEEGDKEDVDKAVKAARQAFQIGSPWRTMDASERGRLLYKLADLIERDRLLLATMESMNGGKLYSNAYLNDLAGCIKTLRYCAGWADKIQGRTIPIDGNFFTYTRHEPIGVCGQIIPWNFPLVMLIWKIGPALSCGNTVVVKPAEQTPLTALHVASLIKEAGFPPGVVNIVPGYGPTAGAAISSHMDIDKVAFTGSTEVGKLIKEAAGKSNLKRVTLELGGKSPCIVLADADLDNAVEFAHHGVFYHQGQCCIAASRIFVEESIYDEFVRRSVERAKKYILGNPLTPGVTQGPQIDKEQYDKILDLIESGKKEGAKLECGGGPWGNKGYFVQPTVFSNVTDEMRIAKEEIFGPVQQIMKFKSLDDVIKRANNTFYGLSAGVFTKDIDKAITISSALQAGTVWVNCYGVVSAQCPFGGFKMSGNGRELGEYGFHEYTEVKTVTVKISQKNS
SMILES,Potency,"activity, negative = inhibition"
COC(=O)c1nc2cc(C)ccn2c1F,"inconclusive [inhibitor, single point]",
COc1ccc(CN(Cc2ccc(C(=O)O)cc2)C(=S)Nc2cccc(C)c2)cc1OC,"inconclusive [inhibitor, single point]",
CCOc1ccc(S(=O)(=O)N2CCN(C(=S)NCc3ccccc3)CC2)cc1,inactive,
C=CCOc1ccc(CNCCc2ccc(S(N)(=O)=O)cc2)cc1,inactive,
O=C(CCS(=O)(=O)Cc1ccccc1F)N1CCc2ccccc2C1,active: 3.55 µM,
COCCCn1c(SCc2cccc(OC)c2)nc2cc(OC)c(OC)cc2c1=N,"inconclusive [inhibitor, single point]",
COc1cccc(NC(=S)N(CCc2c(C)[nH]c3ccccc23)Cc2cccs2)c1,inactive,
O=P(OC1CCS(=O)(=O)C1)(c1ccccc1)c1ccccc1 (stereo not drawn),inactive,
CN(CC(=O)NCCc1ccc(F)cc1)Cc1cccc(Cl)c1,"inconclusive [inhibitor, single point]",
Nc1nc(SCc2ccccc2Cl)cc(C(=O)O)n1,,inactive: -0.0581% [at 13.5 µM]
OCC1CCCN(c2nc(CN3CCCCC3)nc3scc(-c4ccccc4)c23)C1 (stereo not drawn),"inconclusive [inhibitor, single point]",
CC1CC(Nc2ccccc2)=CC(=O)O1 (stereo not drawn),"inconclusive [inhibitor, partial curve, poor fit]",
COC(=O)c1ccc(C)c(NC(=O)Cn2cnc3ccccc3c2=O)c1,"inconclusive [inhibitor, single point]",
CC(NS(=O)(=O)c1ccc(Br)cc1)C(=O)NCc1ccco1 (stereo not drawn),"inconclusive [inhibitor, single point]",
COc1ccc2c(c1)C(=NO)c1cc(OC)ccc1-2,"inconclusive [inhibitor, single point]",
COc1cc2c(cc1OC)/C(=C/C#N)NC(C)(C)C2,active: 2 µM,
N#C/C(=C\c1ccccc1)C(=O)Nc1cc(S(=O)(=O)N2CCOCC2)ccc1N1CCCC1,inactive,
CCNC(=O)N1c2ccc(OC)cc2C(C)=CC1(C)C,"inconclusive [inhibitor, single point]",
Cc1ccc(C)n1-c1nccc(-c2ccco2)n1,"inconclusive [inhibitor, partial curve]",
CC(C)CNC(=S)NC(=O)c1ccc([N+](=O)[O-])cc1,"inconclusive [inhibitor, single point]",
O=C1NN(c2ccc(F)cc2)C(=O)/C1=C/c1cccs1,active: 25.1 µM,
CCCc1nc2oc3ccccc3c(=O)c2c(=O)n1CCCOC,"inconclusive [inhibitor, single point]",
COc1cccc(NC(=O)c2cc(Cl)nnc2Cl)c1,"inconclusive [inhibitor, single point]",
O=C(c1ccco1)N1CCN(C(=O)c2ccccc2Oc2ccccc2)CC1,inactive,
COCCNC(=O)CNC(c1ccccc1)c1ccccc1,"inconclusive [inhibitor, single point]",

SMILES,Potency,"activity, negative = inhibition"
O=C(c1ccccc1)N1CCCCC(S(=O)(=O)c2ccccc2)C1=O (stereo not drawn),"inconclusive [inhibitor, partial curve]",
CN1CCN(Cc2nc(N)nc(Nc3ccc4c(c3)OCCO4)n2)CC1,"inconclusive [inhibitor, single point]",
COc1cc(/C=C\c2ccc(OC)cc2OC)cc(OC)c1,"inconclusive [inhibitor, partial curve]",
O=C(CCCN1C(=O)/C(=C/c2ccccc2Cl)SC1=S)Nc1ccccn1,inactive,
CCOC(=O)CSC1=Nc2ccccc2C2=NC(CC(=O)NCc3cccs3)C(=O)N12 (stereo not drawn),"inconclusive [inhibitor, single point]",
COC(=O)n1c(=S)oc2cc(Cl)ccc21,active: 14.1 µM,
CCc1cccc(CC)c1NC(=O)COC(=O)CCc1cc(OC)c(OC)c(OC)c1,inactive,
Cc1ccc2nc3sc(C(=O)Nc4ccc(N5CCOCC5)cc4)c(N)c3cc2c1,"inconclusive [inhibitor, single point]",
O=C(Nc1cccc(F)c1)N1CC[C@@]2(CCCN(C(=O)c3ccco3)C2)C1,"inconclusive [inhibitor, single point]",
COC(=O)c1ccc(Nc2cc(C)nc3ccccc23)cc1,inactive,
N#Cc1ccc(CN2CCC3(CC2)CCN(S(=O)(=O)c2ccccc2)CC3)cc1,"inconclusive [inhibitor, single point]",
CCOc1ccccc1C=Nc1ccccc1C(=O)Nc1ccccc1,"inconclusive [inhibitor, partial curve]",
CC1CCCN(C(c2cccs2)c2nnnn2Cc2ccccc2)C1 (stereo not drawn),active: 3.16 µM,
COc1cc(OC)c(NC(=O)CCc2nc(-c3ccc(C)cc3)no2)cc1Cl,"inconclusive [inhibitor, single point]",
O=C(/C=C/c1cnc2ccccc2n1)NC1CCCCCC1,"inconclusive [inhibitor, partial curve]",
Cc1c(-n2cc(C(=O)c3ccccc3O)cc(C#N)c2=O)c(=O)n(-c2ccccc2)n1C,"inconclusive [inhibitor, partial curve]",
CC1CCc2c(sc3nc(CN4CCOCC4)nc(Sc4ccccc4)c23)C1 (stereo not drawn),active: 25.1 µM,
O=C(c1cccc(Br)c1)N1CCN(c2cnn(-c3ccccc3)c(=O)c2Cl)CC1,"inconclusive [inhibitor, single point]",
CCOC(=O)c1ccc(-n2c(CN3CCC(O)CC3)nc3ccc([N+](=O)[O-])cc3c2=O)cc1,"inconclusive [inhibitor, single point]",
Cc1cccc(-c2nc3cc([N+](=O)[O-])ccc3o2)c1,inactive,
Cc1nn(Cc2ccccc2Cl)c2sc(C(=O)NC(C)(C)C)cc12,inactive,
CC(C)(C)c1ccc2c(c1)N(CC(=O)O)C(=O)CO2,active: 3.16 µM,
O=C(CSc1nc2ccccc2n1CC(=O)N1CCCC1)NCc1ccc2c(c1)OCO2,"inconclusive [inhibitor, single point]",
CCOc1ccc(N2C(=O)C3C(c4ccccc4F)NN(C(=O)c4ccc(C)cc4)C3C2=O)cc1 (stereo not drawn),inactive,
Cc1cc(C(=S)N2CCOCC2)c(C)n1-c1ccc(Cl)cc1,active: 22.4 µM,

SMILES,Potency,"activity, negative = inhibition"
Cc1c(C)c2ccc(OCC(=O)N3CCOCC3)c(C)c2oc1=O,"inconclusive [inhibitor, partial curve]",
O=C(Nc1ccc(-c2nc3cccnc3s2)cc1)C1CCCO1 (stereo not drawn),"inconclusive [inhibitor, partial curve]",
Cc1cc(=O)oc2cc(N3C(=O)CC(Cc4ccccc4)C3=O)ccc12 (stereo not drawn),"inconclusive [inhibitor, partial curve]",
COCCN(C(=O)CC1C(=O)NCCN1CC(c1ccccc1)c1ccccc1)C(C)C (stereo not drawn),"inconclusive [inhibitor, single point]",
O=C(CSc1nnc(COc2ccc(F)cc2)o1)N1c2ccccc2CCc2ccccc21,active: 3.16 µM,
COc1ccc(/C=C/C(=O)Nc2cccc(F)c2)cc1S(=O)(=O)N1CCOCC1,"inconclusive [inhibitor, single point]",
CCN1CCN(S(=O)(=O)c2ccc3ccccc3c2)CC1,inactive,
O=C(COc1ccccc1/C=C\c1[nH]c(=O)[nH]c(=O)c1[N+](=O)[O-])Nc1ccccc1,"inconclusive [inhibitor, single point]",
CCOC(=O)C1=C(C)n2c(s/c(=C/c3cccc([N+](=O)[O-])c3)c2=O)=NC1c1ccc(O)c(OC)c1 (stereo not drawn),"inconclusive [inhibitor, partial curve]",
O=C(NC1CCCC1)c1ccccc1OCc1ccccc1,"inconclusive [inhibitor, single point]",
CCOCCCNC(=O)C1CCN(C(=O)Nc2ccc(Cl)cc2)CC1,inactive,
CCCCN1C(=O)C(O)(CC(=O)c2ccccn2)c2ccccc21 (stereo not drawn),active: 1 µM,
Cc1cc(C(=O)Nc2nnc(C3CCCCC3)s2)no1,"inconclusive [inhibitor, partial curve, poor fit]",
O=C(Nc1ccc(Cl)cc1)N1CCC(c2nc(-c3cccs3)no2)CC1,"inconclusive [inhibitor, single point]",
Cn1cc(S(=O)(=O)CC(=O)N2CCCc3ccccc32)c2ccccc21,"inconclusive [inhibitor, single point]",
CCOc1ccc2nc(NCCCNS(=O)(=O)c3ccccc3)c(C#N)cc2c1,"inconclusive [inhibitor, single point]",
O=C1CC(N2CCN(c3ccccc3Cl)CC2)C(=O)N1c1cccc(F)c1 (stereo not drawn),active: 11.2 µM,
CCSc1nnc(NC(=O)Cc2ccc(OC)cc2)s1,"inconclusive [inhibitor, single point]",
N#C/C(=N\Nc1cc(Cl)cc(Cl)c1)c1nnc2n1CCCCC2,active: 8.91 µM,
CC(Oc1ccc(Cl)cc1Cl)C(=O)NC(=S)N1CCc2ccccc21 (stereo not drawn),active: 17.8 µM,
Cc1c(NC(=O)c2ccc(S(=O)(=O)N(C)c3ccccc3)cc2)c(=O)n(-c2ccccc2)n1C,inactive,
COc1ccc(S(=O)(=O)N2CCCC(C(=O)NCc3ccccn3)C2)cc1 (stereo not drawn),inactive,
COc1cccc(-n2c(CN3CCN(c4ccccc4)CC3)nc3ccc([N+](=O)[O-])cc3c2=O)c1,active: 28.2 µM,
